Data reported in the supplement of paper PMC4996465.
Viability of KB3-1 and Nalm-6 cells after 48 h of drug alone (CellTiter-Glo), 11 doses over about 4.5 log units. % of DMSO wells, lower = more cell loss; AC50 from the fitted curve, lower = more potent. No active / inactive call. Nalm-6 was screened in two runs. AC50 is listed only for well-fitted inhibitory curves. KB3-1 is a HeLa-derived carcinoma line, Nalm-6 a B-cell precursor leukaemia line.

Assays:
Nalm-6 [1] = test: log AC50 of viability decrease (48 h) (log10 M); higher = less potent
Procedure: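 Eleven-dose screen of the NCATS MIPE 3 library on cells without co-treatment; CellTiter-Glo after 48 h. AC50 from the curve fit; only inhibitory curves of the better fit classes are listed.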

KB3-1 = test: viability (% of DMSO control); higher = more viable cells
Procedure: (§1)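 Eleven-dose screen of the NCATS MIPE 3 library on cells without co-treatment; CellTiter-Glo after 48 h, as % of DMSO wells.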

Nalm-6 [2] = test: as above
Procedure: as §1

Compound | log AC50 of viability decrease (Nalm-6 [1]; run: 1) | log AC50 of viability decrease (Nalm-6 [1]; run: 2) | viability (KB3-1; 0.00078 µM) | viability (KB3-1; 0.00234 µM) | viability (KB3-1; 0.00702 µM) | viability (KB3-1; 0.0211 µM) | viability (KB3-1; 0.0632 µM) | viability (KB3-1; 0.19 µM) | viability (KB3-1; 0.569 µM) | viability (KB3-1; 1.71 µM) | viability (KB3-1; 5.12 µM) | viability (KB3-1; 15.4 µM) | viability (KB3-1; 46.1 µM) | viability (Nalm-6 [2]; run: 1, 0.00078 µM) | viability (Nalm-6 [2]; run: 1, 0.00234 µM) | viability (Nalm-6 [2]; run: 1, 0.00702 µM) | viability (Nalm-6 [2]; run: 1, 0.0211 µM) | viability (Nalm-6 [2]; run: 1, 0.0632 µM) | viability (Nalm-6 [2]; run: 1, 0.19 µM) | viability (Nalm-6 [2]; run: 1, 0.569 µM) | viability (Nalm-6 [2]; run: 1, 1.71 µM) | viability (Nalm-6 [2]; run: 1, 5.12 µM) | viability (Nalm-6 [2]; run: 1, 15.4 µM) | viability (Nalm-6 [2]; run: 1, 46.1 µM) | viability (Nalm-6 [2]; run: 2, 0.00078 µM) | viability (Nalm-6 [2]; run: 2, 0.00234 µM) | viability (Nalm-6 [2]; run: 2, 0.00702 µM) | viability (Nalm-6 [2]; run: 2, 0.0211 µM) | viability (Nalm-6 [2]; run: 2, 0.0632 µM) | viability (Nalm-6 [2]; run: 2, 0.19 µM) | viability (Nalm-6 [2]; run: 2, 0.569 µM) | viability (Nalm-6 [2]; run: 2, 1.71 µM) | viability (Nalm-6 [2]; run: 2, 5.12 µM) | viability (Nalm-6 [2]; run: 2, 15.4 µM) | viability (Nalm-6 [2]; run: 2, 46.1 µM)
CNC1CCC(N(Cc2cccc(-c3ccncc3)c2)C(=O)c2sc3c(F)ccc(F)c3c2Cl)CC1 (centres undefined) [Hh-Ag1.5] | -4.78 | -4.68 | 98.3% | 94.5% | 97% | 90.5% | 60% | 49.7% | 92.2% | 95.2% | 87.3% | 87.1% | 0.177% | 89.5% | 99.8% | 101% | 107% | 105% | 101% | 95.8% | 92.5% | 68.5% | 61.8% | 0.174% | 107% | 100% | 100% | 109% | 103% | 104% | 95% | 89.5% | 77.2% | 74.6% | 0.199%
Cc1cc2c(C(C)C)c(O)c(O)c(C=O)c2c(O)c1-c1c(C)cc2c(C(C)C)c(O)c(O)c(C=O)c2c1O [(-)-Gossypol] | -5.03 | -5.08 | 98.7% | 103% | 101% | 100% | 100% | 98.7% | 98% | 98% | 98.9% | 93.9% | 7.87% | 116% | 117% | 119% | 112% | 122% | 110% | 123% | 113% | 84.6% | 34.7% | 4.38% | 109% | 110% | 105% | 111% | 110% | 106% | 111% | 100% | 82.4% | 21.6% | 4.36%
CCCn1c(=O)c2[nH]c(C34CC5CC3C[C@@H](C5)C4)nc2n(CCC)c1=O [Rolofylline] | -4.83 | -4.78 | 95.2% | 97.2% | 99.3% | 100% | 102% | 98.7% | 102% | 81.6% | 93.2% | 94.3% | 59.5% | 89% | 96% | 95% | 95.8% | 102% | 98.4% | 104% | 109% | 96.3% | 76.6% | 59.7% | 94.5% | 99.7% | 94.7% | 96.9% | 98.8% | 101% | 106% | 109% | 81.8% | 70.3% | 43%
Cc1cc2c(cc1C1(c3ccc(C(=O)O)cn3)CC1)C(C)(C)CCC2(C)C | -5.43 |  | 98.7% | 105% | 104% | 103% | 102% | 99.7% | 102% | 105% | 100% | 104% | 95.2% | 102% | 100% | 94.8% | 91.6% | 82% | 71.2% | 58.6% | 60.2% | 50.3% | 53.3% | 3.5% | 92.2% | 109% | 98.3% | 99.7% | 99.5% | 97.1% | 94.1% | 99% | 86.2% | 92.6% | 17%
NC1=C(Cl)C(=CC=N1)OC2=C(F)C=C(NC(=O)\C3=C\N\C=C(C3=O)\C4=CC=C(F)C=C4)C=C2 | -4.63 | -4.63 | 103% | 103% | 95.9% | 96.8% | 96.8% | 97% | 98.6% | 93.2% | 93% | 93.1% | 16.6% | 121% | 112% | 116% | 111% | 105% | 102% | 103% | 104% | 91.2% | 82.4% | 5.21% | 106% | 98.1% | 104% | 106% | 103% | 104% | 102% | 107% | 96.1% | 85.5% | 2.7%
